Laboratory results from article PMC4336329 (PLoS ONE, 2015).
In all, about 310,000 compounds went through this assay and about 14,000 (4.5%) showed an effect of 50% or more. Effects have a minus sign here. This is one part of the list.

Target: human ether-à-go-go-related gene (hERG) potassium channel (human, UniProt Q12809)
Experiment: primary screen, population patch clamp on CHO cells stably expressing hERG
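Further: peak tail current of the secondary pulse compared with the same well before compound.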

Chain of human ether-à-go-go-related gene (hERG) potassium channel (Q12809 whole entry, looked up): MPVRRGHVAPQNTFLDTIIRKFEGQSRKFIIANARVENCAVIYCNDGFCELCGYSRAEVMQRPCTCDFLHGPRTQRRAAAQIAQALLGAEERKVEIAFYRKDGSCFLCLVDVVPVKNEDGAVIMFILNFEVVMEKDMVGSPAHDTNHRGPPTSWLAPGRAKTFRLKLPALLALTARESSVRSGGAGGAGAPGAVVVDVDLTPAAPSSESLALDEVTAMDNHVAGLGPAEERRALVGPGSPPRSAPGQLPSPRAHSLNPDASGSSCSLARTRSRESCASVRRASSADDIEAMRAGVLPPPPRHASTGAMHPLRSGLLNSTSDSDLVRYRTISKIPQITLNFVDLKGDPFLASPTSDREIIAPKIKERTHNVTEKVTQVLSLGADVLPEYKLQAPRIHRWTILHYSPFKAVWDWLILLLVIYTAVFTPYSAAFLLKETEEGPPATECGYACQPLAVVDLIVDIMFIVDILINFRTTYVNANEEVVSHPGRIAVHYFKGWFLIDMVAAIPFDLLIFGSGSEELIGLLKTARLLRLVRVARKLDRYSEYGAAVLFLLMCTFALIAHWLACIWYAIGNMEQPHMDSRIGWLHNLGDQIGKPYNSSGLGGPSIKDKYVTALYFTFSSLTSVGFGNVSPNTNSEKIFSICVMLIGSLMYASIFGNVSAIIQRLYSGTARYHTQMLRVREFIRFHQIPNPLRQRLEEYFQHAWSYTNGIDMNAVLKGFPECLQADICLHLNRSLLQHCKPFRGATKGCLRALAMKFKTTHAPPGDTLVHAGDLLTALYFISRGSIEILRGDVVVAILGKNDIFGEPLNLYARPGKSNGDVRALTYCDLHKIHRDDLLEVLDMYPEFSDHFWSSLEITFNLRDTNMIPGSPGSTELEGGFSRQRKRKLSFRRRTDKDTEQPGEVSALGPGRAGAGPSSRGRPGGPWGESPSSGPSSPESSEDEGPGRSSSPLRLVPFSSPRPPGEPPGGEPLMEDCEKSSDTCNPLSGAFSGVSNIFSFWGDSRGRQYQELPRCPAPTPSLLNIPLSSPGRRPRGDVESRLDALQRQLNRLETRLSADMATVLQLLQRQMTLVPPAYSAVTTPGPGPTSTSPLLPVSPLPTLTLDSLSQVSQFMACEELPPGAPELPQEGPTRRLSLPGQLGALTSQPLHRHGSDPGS

Row | Structure (SMILES) | hERG current change (%, negative = inhibition) at 10uM [%]
1 | CCSc1ncc(Cl)c(C(=O)Nc2ccc(S(=O)(=O)Nc3onc(C)c3C)cc2)n1 | 4.3
2 | COc1ccccc1CN1C(=O)c2ccccc2C1C(=O)NC1CCC(C)CC1 (centres unmarked) | -12.2
3 | CCC(=O)N1CCN(c2ccc(NC(=O)c3ccco3)cc2)CC1 | 9.27
4 | O=c1c(Cc2ccccc2O)c(O)nc2n1CCCS2 | 7.27
5 | Cn1c(=O)n(CC(N)=O)c(=O)c2c1nc1n2CCCN1Cc1ccccc1 | 14.8
6 | Cc1ccnc(N2C(=O)c3ccccc3C2Nc2cccc(C)c2C)c1 (centres unmarked) | 13.1
7 | C=CCNC(=O)C12CC3(C)CC(C)(CC(C)(C3)C1)C2 | -11.8
8 | Cc1cc(NC(=O)COC(=O)c2n[nH]c3ccccc23)no1 | 8.9
9 | Cc1cc(C)c(C#N)c(SCc2nc3ccccc3c(=O)[nH]2)n1 | 9.18
10 | CCOc1ccc(CC(C(=O)NN)C(=O)NN)cc1CN(C)C | 10.2
11 | C=CCNc1nnnc2c1sc1nc(N3CCOCC3)c3c(c12)CCCC3 | 9.26
12 | CC(C)(C)c1cc(NC(=O)Nc2ccc(Cl)cc2Cl)no1 | 16.4
13 | COc1ccc(C2C(C#N)=C(N)OC3=C2C(=O)CCC3)cc1Cn1cc([N+](=O)[O-])cn1 (centres unmarked) | -10
14 | CCN1C(=O)/C(=C\N(C(C)=O)c2ccccc2)OC1=S | 3.96
15 | O=C(O)CSCC(=O)N1N=C2/C(=C/c3ccccc3)CCCC2C1c1ccccc1 (centres unmarked) | 16.4
16 | COC(=O)c1ccccc1Sc1c(/C=N/OCc2ccc(Cl)cc2)c(C(F)(F)F)nn1C | 13.4
17 | Cc1cc(-c2ccc(C)c(S(=O)(=O)NCc3cccc(Br)c3)c2)on1 | -22.2
18 | Cc1ccc(CN(C)C(=O)CN2C(=O)NC(c3ccccc3)(c3ccccc3)C2=O)c(C)c1 | -14.1
19 | CC1(c2ccc(OC(F)F)cc2)NC(=O)N(CC(=O)Nc2ccc3[nH]c(=O)[nH]c3c2)C1=O (centres unmarked) | 17.2
20 | O=[N+]([O-])c1cc(/C=N/Nc2nc3ccccc3[nH]2)c(O)cc1O | 7.86
21 | CCC(C)c1ccccc1NC(=S)NC(=O)c1ccco1 (centres unmarked) | -8.68
22 | O=C(O)/C=C/C(=O)Nc1ccc(OC(F)(F)Cl)cc1 | 1.88
23 | O=C(COC(=O)C12CC3CC(CC(Br)(C3)C1)C2)Nc1cccnc1Cl | -4.8

Row | Structure (SMILES) | hERG current change (%, negative = inhibition) at 10uM [%]
24 | Cc1ccc(C)c2[nH]c(=O)c(CCNC(=O)c3cccs3)cc12 | -10.9
25 | Cc1nnc(SCC2=C(C(=O)O)N3C(=O)C(NC(=O)Cn4nc(C(F)F)cc4C)C3SC2)s1 (centres unmarked) | 13.1
26 | CCC1(C)Cc2nc(Cl)c(C#N)cc2CO1 (centres unmarked) | -2.38
27 | CC1CCCCN1C(=O)CNCc1ccc(F)cc1.O=C(O)C(=O)O (centres unmarked) | 4.38
28 | F[B-](F)(F)F.OCC[NH+]=c1cc(-c2ccccc2)oc2ccc(Cl)cc12 | -71.3
29 | Cn1c(SCC(=O)N2CCN(c3ccccc3)CC2)nnc1-c1c[nH]c2ccccc12 | -50.5
30 | COc1cccc(N2CC(C(=O)N3CCC4(CC3)CC(=O)c3ccccc3O4)CC2=O)c1 (centres unmarked) | -53.5
31 | CN(CCOc1ccc(Cl)cc1)C(=O)c1cc(-c2ccco2)nc2ccccc12 | -33.7
32 | CCOC(=O)c1sc(NC(=O)c2ccc3ncsc3c2)nc1C | 10.8
33 | Cc1cccc(NC(=S)NCCC(c2ccccc2)c2ccccc2)c1 | 12
34 | CCCCCC(=O)NNC(=S)NC(=O)c1ccccc1[N+](=O)[O-] | 17.8
35 | CC(C)c1ccc(NC(=S)NCc2cccs2)cc1 | -18.7
36 | CC(=O)N1CCc2cc(C(=O)CN3CCC(C)CC3)ccc21 | -1.35
37 | c1ccc(Oc2nc(NCc3ccco3)nc(NCc3ccco3)n2)cc1 | -2.28
38 | CCOC(=O)N1CCC(NC(=O)c2cc3c(-c4cccc(OC)c4)nn(C)c3s2)CC1 | -9.54
39 | COc1cccc2cc(C(=O)Nc3ccccc3Cl)/c(=N/NS(=O)(=O)c3ccccc3)oc12 | 21.2
40 | Cc1ccc2c(C)c(C(=O)N3CCN(c4cnccn4)CC3)oc2c1C | -24.5
41 | N#CCC(=O)N/N=C/c1cn(Cc2ccc(Cl)cc2Cl)c2ccccc12 | 11.9
42 | CCCN1CCC(N(C)CCc2ccc(OC)c(OC)c2)CC1 | -11.4
43 | O=C(CCCN1C(=O)c2cccc3cccc(c23)C1=O)NCc1ccco1 | 23
44 | N#CC1=C(N)Oc2c(c(=O)sc3ccccc23)C1c1ccncc1 (centres unmarked) | 17.2
45 | O=C(CN(Cc1ccco1)C(=O)c1ccccc1)Nc1ccc(Cl)c(Cl)c1 | -1.85
46 | CC(Sc1nnc2ccccn12)C(=O)Nc1ccc2c(c1)OCCO2 (centres unmarked) | 16.7

Row | Structure (SMILES) | hERG current change (%, negative = inhibition) at 10uM [%]
47 | C=CCC1(CC=C)CCCN1Cc1nc(COc2ccccc2)no1 | -11.5
48 | COC(=O)[C@@]12CCCN1[C@H](c1ccc(-c3ccc(C(C)=O)cc3)c(OC)c1)[C@H]1C(=O)N(C)C(=O)[C@H]12.O=C(O)C(F)(F)F | -19.9
49 | Cc1ccc(NC(=S)NCc2ccco2)c(C)c1 | 1.56
50 | Cc1ccc(NC(=O)c2cc(-c3cccs3)on2)cc1 | 15.4
51 | Cc1cccc(-n2c(CNC(=O)c3ccc(S(=O)(=O)N4CCCCC4)cc3)n[nH]c2=S)c1 | 15
52 | S=c1[nH]nc(-c2cccs2)n1/N=C/c1c(Cl)cccc1Cl | 24.1
53 | O=C(CSc1nnc(Nc2ccccc2F)s1)NC1CCCC1 | 0.718
54 | O=C(CNc1ccccc1)N/N=C/c1ccc2c(c1)OCCO2 | -1.82
55 | Cc1ccc(NC(=S)N2CCN(Cc3ccc4c(c3)OCO4)CC2)c(C)c1 | -1.01
56 | Cc1ccc(-c2c(C(=O)N/N=C/c3ccco3)nnn2-c2nonc2N)cc1 | 11.2
57 | CC12CCC(C(=O)N(CCC#N)CCC#N)(CC1=O)C2(C)C (centres unmarked) | 7.57
58 | O=C(Nc1cccc(Cl)c1)C1CCCN(S(=O)(=O)c2cnc[nH]2)C1 (centres unmarked) | -0.341
59 | COc1ccc(N(CC(=O)NCc2ccccc2OC)S(=O)(=O)c2c(C)nn(C)c2C)cc1 | -10.6
60 | CCOc1ccc2nc(SCC(=O)c3ccccc3)sc2c1 | 8.84
61 | O=C(NCCCCc1ccccc1)C1CC(c2ccccc2C(F)(F)F)=NO1 (centres unmarked) | -4.51
62 | CC(C)c1ccc(NC(=S)NN2CCOCC2)cc1 | 12.3
63 | CCNC(=S)N/N=C1\CCCCc2ccccc21 | -3.93
64 | COc1cccc2[nH]c3c(=O)[nH]cnc3c12 | 18.9
65 | Cc1cc(C)c(N=Cc2c(O)[nH]c(=O)[nH]c2=O)c(C)c1 | 11.6
66 | COC(=O)CCC(=O)NC(=S)Nc1ccccc1F | 0.396
67 | O=C(NCc1cccs1)c1ccc([N+](=O)[O-])cc1Cl | -27.9
68 | CC(C)(C)NC(=O)Cn1c(=O)oc2ccc(Cl)cc21 | 6.54
69 | COc1ccc(C(=O)OC2CCN(C)CC2)cc1.Cl | -11.8

Row | Structure (SMILES) | hERG current change (%, negative = inhibition) at 10uM [%]
70 | COc1ccc(C(=O)NCC2(N3CCCCC3)CCCCC2)cc1S(=O)(=O)N(C)C | -7.09
71 | COC(=O)c1cn(C(=O)OC)c2ccccc12 | 12.8
72 | CCSc1nnc(CSc2ncccn2)n1C | 2.72
73 | CC(C)(C)NC(=O)NC(=O)CSc1cccc(C(F)(F)F)c1 | 8.87
74 | Cc1ccc(C)n1-n1c(C)nc2scc(-c3cccs3)c2c1=O | -13.1
75 | CN(C)c1oc(COc2ccc(F)cc2)nc1C#N | -18.6
76 | Cc1cc(C)n(CCNC(=O)C2CCC(=O)N(CCc3cccc(F)c3)C2)n1 (centres unmarked) | 26.9
77 | O=C(NC1CC1)C1CCN(C2CCN(C(=O)Cc3ccc4c(c3)OCO4)CC2)CC1 | 22.3
78 | O=C(COC(=O)/C=C/c1ccccc1)NC1CCCCC1 | -4.97
79 | CCOc1ccc(OCCCC(=O)Nc2nc3ccccc3[nH]2)cc1 | 12
80 | CCOc1ccccc1NC(=O)CSc1nc2[nH]ncc2c(=O)[nH]1 | 7.46
81 | CN(C)c1ccc(/C=C2\C(=O)NC(=O)N(CCc3ccc(F)cc3)C2=O)cc1 | 11.7
82 | CC(C)[C@H](NC(=O)c1ccco1)C(=O)NC12CC3CC(CC(C3)C1)C2 | -5.81
83 | CCCCn1cnc2cc(C)c(C)cc21 | -5.01
84 | O=C(CS(=O)(=O)c1ccc(C(F)(F)F)cn1)NNC(=O)c1ccccc1 | 8.73
85 | CC1(C)CC(=O)c2c(O)cc(OCC(=O)Nc3ccc(CCO)cc3)cc2O1 | -21.4
86 | O=C(CCN1C(=O)C2C3CCC(C3)C2C1=O)Nc1cccc(Cl)c1 (centres unmarked) | -9.91
87 | CC1CCN(CC(=O)N2CCCc3c2c(=O)oc2ccc(OCc4ccccc4)cc32)CC1 | -10.5
88 | O=C(Nc1ccccc1O)c1cc(S(=O)(=O)N2CCOCC2)c(Cl)cc1Cl | -16.4
89 | COC(=O)CSc1nnc(-c2ccc(S(=O)(=O)NCc3cccs3)cc2)o1 | 4.55
